# PubChem BioAssay AID686979 (National Center for Advancing Translational Sciences (NCATS), 2013)
# About 50,000 (12%) of roughly 420,000 compounds were called active. The inconclusive results got no clear call from the source; some entries with a clear call stand among them for comparison. The call rests on the fitted dose curve; in most records, active means well fitted inhibition curve with a large enough effect; inconclusive means small, poorly fitted or top-dose-only effect; inactive means flat fitted curve, though single readings scatter. No potency is given beside an inconclusive call; the fits are too rough.
# Experiment: qHTS for Inhibitors of human tyrosyl-DNA phosphodiesterase 1 (TDP1): qHTS in cells in presence of CPT; further: nearly all actives have a fitted effect of over 55% in size
# Details: chicken DT40 Tdp1-/-;hTDP1 cells + 20 nM CPT, ATP luminescence, 48 h; activity change, negative = growth inhibition: at 46.2 µM (top of the series) unless noted
# Procedure, shortened: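 Cell growth measured by CellTiter-Glo luminescence after a minimum 48 h, 37 C compound exposure with 20 nM CPT in Tdp1-knockout DT40 cells stably expressing hTDP1, seeded 400/well; qHTS titration format.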
# On the % scale 0 is the no-effect control and ±100 the full control effect; potency means the concentration at half of the fitted maximal effect; tags describe the fitted curve by direction and shape.
SMILES,Potency,"activity change, negative = growth inhibition"
Cc1ccc(N2C(=O)N(CC(=O)Nc3cccc(Cl)c3)C(=O)C2C)cc1 (centres undefined),"inconclusive [inhibitor, single point]",
O=C1OC(c2ccc(Br)cc2)=N/C1=C\c1ccco1,inactive,
COc1cc(OC)cc(C2=Cc3ccc(OC)cc3C(CC(C)=O)N2c2ccc(C#CC3(O)CCCCC3)cc2)c1 (centres undefined),"inconclusive [inhibitor, single point]",
COc1ccc(N2CCN(Cc3cc(=O)oc4ccc(Cl)cc34)CC2)cc1,"inconclusive [inhibitor, single point]",
Cn1c(N)c(C(=O)CSc2ccc3c(c2)OCCO3)c(=O)n(C)c1=O,active: 18.4 µM,
Cc1ccc(NC(=O)Cn2c(=O)n(Cc3nc(C)no3)c(=O)c3cc4c(cc32)OCO4)c(C)c1,inactive,
Nc1nc2sc3c(c2cc1C(=O)NCC(=O)O)CCCC3,inactive,
Cc1ccc(OCCn2cc(C#N)c3ccccc32)cc1,"inconclusive [inhibitor, single point]",
CCCn1c(SCc2nc(-c3ccccc3OCC)no2)nnc1-c1ccc(Cl)cc1,"inconclusive [inhibitor, partial curve, poor fit]",
Cc1ccc(NC(=O)Cn2cc(C=O)c3ccccc32)cc1,"inconclusive [inhibitor, partial curve]",
Cc1ccc(C(C(=O)NCc2ccccc2)N(Cc2ccco2)C(=O)c2snc(C(N)=O)c2N)o1 (centres undefined),"inconclusive [inhibitor, single point]",
CCCN(Cc1nnc(-c2ccccc2Cl)o1)C(=O)c1cc2ccccc2o1,"inconclusive [inhibitor, single point]",
CCOc1ccccc1C(=O)N(Cc1cc(OC)c(OC)c(OC)c1)c1ccccn1,active: 18.4 µM,
COc1ccc(C2CC(C(C)(C)C)=NN2c2ccc(S(N)(=O)=O)cc2)cc1 (centres undefined),"inconclusive [inhibitor, single point]",
CC(C)c1ccc(NC(=O)CSc2nc(=O)n(Cc3ccccn3)c3c2CCC3)cc1,active: 23.1 µM,
CC(=C1C(=O)c2ccccc2C1=O)N1CCC(C(N)=O)(N2CCCCC2)CC1,inactive,
COc1ccc2c(c1OC)C(=O)OC2Nc1nc(-c2ccccc2)cs1 (centres undefined),active: 2.31 µM,
O=C(O)/C=C/C(=O)Nc1ccccc1-c1ccccc1NC(=O)/C=C/C(=O)O,inactive,
CS(=O)(=O)N(CC(=O)N1CCc2ccccc2C1)Cc1ccc(F)cc1,inactive,
CC1CCCC(NC(=O)C2CCN(C(=O)Nc3ccccc3)CC2)C1C (centres undefined),inactive,
Cc1ccc(CCNC(=O)c2ccc3c(c2)nc2n3CCCCC2)cc1,"inconclusive [inhibitor, single point]",
CCOc1ccc(OCCC(=O)N(CC)CC(=O)NCc2ccc(Cl)cc2)cc1,"inconclusive [inhibitor, partial curve]",
Cn1c(=O)c2c(ncn2Cc2cc(-c3ccccc3)no2)n(C)c1=O,"inconclusive [inhibitor, partial curve]",

SMILES,Potency,"activity change, negative = growth inhibition"
O=C(CSc1cccc2cccnc12)Nc1ccc(S(=O)(=O)N2CCOCC2)cc1,"inconclusive [inhibitor, single point]",
COc1cccc(-c2cnc3c(NC=O)cc(-c4ccccc4Oc4ccccc4)cn23)c1,"inconclusive [inhibitor, single point]",
O=C(CN1C(=O)COc2ccc(Cl)cc21)Nc1cccc(F)c1,"inconclusive [inhibitor, single point]",
NS(=O)(=O)c1ccc(-c2c(-c3ccccc3)sc3ccccc23)cc1,inactive,
COC(=O)[C@]12CCCCC=C1N(Cc1ccco1)C(=O)[C@H](CC(=O)N1CCN(C(=O)C3CC3)CC1)C2,inactive,
CC(=O)c1ccc(N2CCN(Cc3nc(Cc4ccccc4)no3)CC2)cc1,"inconclusive [inhibitor, single point]",
Cc1ccccc1-n1c([C@@H]2C[C@H]2c2ccccc2)n[nH]c1=S,inactive,
CC(=O)Nc1ccc(S(=O)(=O)Oc2ccc(/C=C3\SC(N)=NC3=O)cc2)cc1,inactive,
O=C(c1ccco1)N1CCN(c2ccc(Cl)c(Cl)c2)CC1,active: 20.6 µM,
COc1ccc(Nc2cc(Nc3cccc(OC)c3)ncn2)cc1,inactive,
Cc1sc2ncn(CC(=O)Nc3cccc(C(F)(F)F)c3)c(=O)c2c1S(=O)(=O)N1CCN(C)CC1,"inconclusive [inhibitor, partial curve]",
CCN1C(=O)[C@H]2[C@H]3CN=C(SC)N3[C@@](Cc3ccccc3)(C(=O)OC)[C@H]2C1=O,inactive,
Cc1cc(F)ccc1-c1cc(C(=O)NCc2ccc(C(F)(F)F)cc2)[nH]n1,"inconclusive [inhibitor, single point]",
Cc1sc(NC(=O)C2=COCCO2)nc1-c1ccc(Cl)cc1,"inconclusive [inhibitor, single point]",
Cc1cccc(C)c1NC(=O)C(c1ccccc1)n1c(=O)c(-c2ccco2)nc2ccccc21 (centres undefined),"inconclusive [inhibitor, single point]",
N#Cc1ccc(CSc2nnc(-c3ccccn3)n2-c2ccccc2)cc1,"inconclusive [inhibitor, single point]",
Cc1c(NS(=O)(=O)c2ccc(Cl)c(C(=O)OCC(=O)NCc3ccco3)c2)c(=O)n(-c2ccccc2)n1C,"inconclusive [inhibitor, single point]",
NC(=O)CC(NC(=O)Cc1ccc(Br)cc1)c1ccc(NC2CCCC2)c([N+](=O)[O-])c1 (centres undefined),"inconclusive [inhibitor, single point]",
CCCCCCNC(=O)N[C@@H](C(=O)NCCC[C@H]1CN2C(=NC[C@@H]2Cc2ccccc2)N1CCc1cccc(OC)c1)C(C)C,active: 4.11 µM,
Oc1ccc(/C=N/n2c(-c3ccco3)csc2=Nc2cccnc2)c(O)c1,active: 11.6 µM,
CC12CC(O)C3c4ccc(O)cc4CCC3C1CC/C2=N\O (centres undefined),inactive,
COc1ccc(S(=O)(=O)NCc2ccccn2)cc1NC(=O)c1ccccc1C,active: 4.11 µM,
Oc1c(Br)cc(Br)cc1C=NCc1ccccc1,,inconclusive: -33.6% [inhibitor]

SMILES,Potency,"activity change, negative = growth inhibition"
Cc1ccccc1Cc1c(C)nc2nc(SCC(=O)N(C)c3ccccc3)nn2c1C,active: 23.1 µM,
Cc1c(C(=O)N2CCC(C)CC2)c(S(=O)(=O)NCc2ccc(Cl)cc2)c(C)n1C,"inconclusive [inhibitor, single point]",
COc1cc(CNc2ccc(N3CCCCC3)cc2)ccc1OCC(=O)NC(C)(C)C,"inconclusive [inhibitor, single point]",
CN(c1ccc(F)cc1)S(=O)(=O)N1CCCC(C(=O)NCc2cccc(Br)c2)C1 (centres undefined),active: 14.6 µM,
Cc1noc(C)c1C(=O)N1CCC2(CCCN(C(=O)Nc3cccc(F)c3)C2)CC1,inactive,
c1ccc2c(CN3CCOCC3)c3ccccc3c(CN3CCOCC3)c2c1,"inconclusive [inhibitor, single point]",
O=C(NN1C(=O)c2ccccc2NC12CCCCC2)c1ccccc1,"inconclusive [inhibitor, partial curve]",
COc1cccc2cc(C(=O)NCc3ccco3)c(=Nc3ccc(C(=O)O)cc3)oc12,"inconclusive [inhibitor, single point]",
CCCCn1c(-c2ccccc2)nnc1-c1ccccc1,"inconclusive [inhibitor, single point]",
COc1ccc(CN(C)C(=O)Cc2c[nH]c3ccccc23)c(OC)c1OC,"inconclusive [inhibitor, single point]",
O=C(CN1C(=O)C2CCCN2c2ncc(Cl)cc21)NCc1ccc2c(c1)OCO2 (centres undefined),"inconclusive [inhibitor, single point]",
O=C1c2ccccc2C(Nc2ccc3c(c2)OCCO3)N1Cc1ccco1 (centres undefined),active: 20.6 µM,
CCN(CC)c1ccc2cc(-c3nc(-c4cccs4)no3)c(=O)oc2c1,"inconclusive [inhibitor, partial curve, poor fit]",
Cc1nc2c(OCc3ccc(OC(F)F)cc3)cccn2c1N(C)C(=O)CCC1CCCC1,active: 13 µM,
COc1ccc(NC(=O)N(C)C[C@H]2OCCCC[C@@H](C)Oc3ccc(NC(=O)c4ccccc4)cc3C(=O)N([C@H](C)CO)C[C@@H]2C)cc1,"inconclusive [inhibitor, partial curve, poor fit]",
c1ccc(CCNc2nc(-c3ccncc3)nc3ccccc23)cc1,active: 20.6 µM,
Cc1ccsc1C(=O)OCC(=O)c1cc(C)n(CC2CCCO2)c1C (centres undefined),"inconclusive [inhibitor, single point]",
CC(C)N(O)C(=O)NC(C)(C)C,inactive,
Cc1cc(C(=O)Nc2ccc(N3CCCC3)c(Cl)c2)ccc1[N+](=O)[O-],"inconclusive [inhibitor, single point]",
Cc1oc(-c2ccccc2)nc1CS(=O)CC(=O)NC1CCCCCC1 (centres undefined),"inconclusive [inhibitor, single point]",
COc1ccc(S(=O)(=O)NCCc2csc3nc(-c4cccc(C)c4)nn23)cc1F,"inconclusive [inhibitor, single point]",
O=C(Nc1ccccc1C(=O)NCc1ccccc1)c1ccccc1Br,active: 23.1 µM,
Cc1ccc2c(/C=C/c3ccc(N(C)C)cc3)ccnc2c1C,active: 12.6 µM,
